Test results published in paper PMC11995724, “Antibiotic target discovery by integrated phenotypic and activity-based profiling of electrophilic fragments” (Cell chemical biology, 2025).
Screen size: about 3,200 compounds; about 110 (3.4%) showed an effect of 50% or more. The list shows a part of the results.

Test system: T1, V. cholerae SAD30
T1 construct: SAD30
Parameters: species or system S. aureus MSSA476 (TSB) or V. cholerae SAD30 (LB); 384-well bacterial growth screen at 25 uM, OD600 relative to DMSO control
Conditions: relative growth, OD600, LB; 25 µM; inhibitor

Compound | % of control remaining
N#CC(=Cc1cc(F)ccc1F)C(=O)NC1CCCC1 [8-I12, 2-cyano-N-cyclopentyl-3-(2,5-difluorophenyl)prop-2-enamide] | 68.3209%
C=CC(=O)N1CCC(c2nc3c(s2)CCC3)CC1 [3-I22, 1-(4-{4H,5H,6H-cyclopenta[d][1,3]thiazol-2-yl}piperidin-1-yl)prop-2-en-1-one] | 101.088%
O=C(CCl)NSc1ccc([N+](=O)[O-])cc1 [4-P13, 2-chloro-N-[(4-nitrophenyl)sulfanyl]acetamide] | 87.6429%
Cc1ccc(N2CCCC2CNC(=O)CCl)cc1 (stereo not drawn) [7-H14, 2-chloro-N-{[1-(4-methylphenyl)pyrrolidin-2-yl]methyl}acetamide] | 79.0352%
Cc1ccc(N(CCC#N)C(=O)CCl)cc1 [4-M15, 2-chloro-N-(2-cyanoethyl)-N-(4-methylphenyl)acetamide] | 100.41%
C=CC(=O)NCc1ccccc1S(=O)(=O)NC [1-N03, N-{[2-(methylsulfamoyl)phenyl]methyl}prop-2-enamide] | 97.0105%
C=CC(=O)N(Cc1cn(C)nc1-c1ccc(F)cc1)C1CC(C)C1 (stereo not drawn) [1-P09, N-{[3-(4-fluorophenyl)-1-methyl-1H-pyrazol-4-yl]methyl}-N-(3-methylcyclobutyl)prop-2-enamide] | 89.9851%
Cc1cc(C)c(NC(=O)C(C#N)=Cc2ccc(C(C)(C)C)cc2)c(C)c1 [8-I13, 3-(4-tert-butylphenyl)-2-cyano-N-(2,4,6-trimethylphenyl)prop-2-enamide] | 81.1013%
COc1cc(C=C(C#N)C(=O)Nc2cccc(C)c2)c2c(c1)CC(C)O2 (stereo not drawn) [8-N22, 2-cyano-3-(5-methoxy-2-methyl-2,3-dihydro-1-benzofuran-7-yl)-N-(3-methylphenyl)prop-2-enamide] | 77.7022%
C=CC(=O)NC(C)c1cn(-c2ccccc2)nn1 (stereo not drawn) [1-N04, N-[1-(1-phenyl-1H-1,2,3-triazol-4-yl)ethyl]prop-2-enamide] | 110.893%
O=C(CCl)Nc1ncc(Cc2ccccc2Cl)s1 [4-P07, 2-chloro-N-{5-[(2-chlorophenyl)methyl]-1,3-thiazol-2-yl}acetamide] | 93.5087%
C=CC(=O)N1CCS(=O)(=O)N2CCCC12 (stereo not drawn) [3-H18, 1-(prop-2-enoyl)-hexahydro-1H-4lambda6-pyrrolo[1,2-b][1,2,4]thiadiazine-4,4-dione] | 91.5604%
Cc1cc(C(=O)CCl)c(C)n1CC(N)=O [10-O16, 2-[3-(2-chloroacetyl)-2,5-dimethyl-1H-pyrrol-1-yl]acetamide] | 94.6035%
Cc1nsc(N2CCN(C(=O)C(C)Cl)CC2)c1C#N (stereo not drawn) [6-H15, 5-[4-(2-chloropropanoyl)piperazin-1-yl]-3-methyl-1,2-thiazole-4-carbonitrile] | 89.3355%
Cc1cccc(C)c1NC(=O)C(C#N)=Cc1ccsc1 [8-I07, 2-cyano-N-(2,6-dimethylphenyl)-3-(thiophen-3-yl)prop-2-enamide] | 73.2155%
C=CC(=O)NC1CCOC1C (stereo not drawn) [1-F06, N-(2-methyloxolan-3-yl)prop-2-enamide] | 109.176%
Cc1ccc(C=C(C#N)C(=O)Nc2ccc(C(=O)N(C)C)cc2)o1 [9-P14, 4-[2-cyano-3-(5-methylfuran-2-yl)prop-2-enamido]-N,N-dimethylbenzamide] | 84.0925%
CCn1ccc(CN(C)C(=O)CCl)n1 [5-K06, 2-chloro-N-[(1-ethyl-1H-pyrazol-3-yl)methyl]-N-methylacetamide] | 100.2%
Cc1ccsc1C=C(C#N)C(=O)N1CCN(c2ccccc2)CC1 [8-B13, 3-(3-methylthiophen-2-yl)-2-(4-phenylpiperazine-1-carbonyl)prop-2-enenitrile] | 54.3168%
C=CC(=O)NCCc1nc(C)no1 [3-N19, N-[2-(3-methyl-1,2,4-oxadiazol-5-yl)ethyl]prop-2-enamide] | 97.03%
COc1ccc2cc(C=C(C#N)C(=O)NCc3ccccc3)ccc2c1 [9-D07, N-benzyl-2-cyano-3-(6-methoxynaphthalen-2-yl)prop-2-enamide] | 82.4609%
CCn1cc(CN(C(=O)CCl)[C@H]2CC[C@H](C)CC2)cn1 [5-G16, 2-chloro-N-[(1-ethyl-1H-pyrazol-4-yl)methyl]-N-[(1r,4r)-4-methylcyclohexyl]acetamide] | 98.1822%
COc1ccc(Cl)cc1NC(=O)C(C)Cl (stereo not drawn) [6-G16, 2-chloro-N-(5-chloro-2-methoxyphenyl)propanamide] | 89.3355%

Compound | % of control remaining
CC(Cl)C(=O)N(C)C1CCN(c2ccccc2Cl)C1=O (stereo not drawn) [7-C16, 2-chloro-N-[1-(2-chlorophenyl)-2-oxopyrrolidin-3-yl]-N-methylpropanamide] | 76.1275%
CC(Cl)C(=O)NC1CCCc2c1cnn2Cc1ccccc1 (stereo not drawn) [7-G13, N-(1-benzyl-4,5,6,7-tetrahydro-1H-indazol-4-yl)-2-chloropropanamide] | 70.8409%
COC(=O)c1c(NC(=O)CCl)sc2c1CCC(C(C)(C)C)C2 (stereo not drawn) [4-J19, methyl 6-tert-butyl-2-(2-chloroacetamido)-4,5,6,7-tetrahydro-1-benzothiophene-3-carboxylate] | 99.7196%
C=CC(=O)NCCc1csc(C)n1 [1-D13, N-[2-(2-methyl-1,3-thiazol-4-yl)ethyl]prop-2-enamide] | 86.9955%
C=CC(=O)Nc1cccc(-c2nnnn2C(C)C)c1 [1-A16, N-{3-[1-(propan-2-yl)-1H-1,2,3,4-tetrazol-5-yl]phenyl}prop-2-enamide] | 87.145%
CC1CCCN(C(=O)C(NC(=O)CCl)c2cnn(C)c2)C1 (stereo not drawn) [6-H05, 2-chloro-N-[1-(1-methyl-1H-pyrazol-4-yl)-2-(3-methylpiperidin-1-yl)-2-oxoethyl]acetamide] | 100.559%
CC(Cl)C(=O)NCC1CN(c2ccc(Cl)cc2)CCO1 (stereo not drawn) [6-F07, 2-chloro-N-{[4-(4-chlorophenyl)morpholin-2-yl]methyl}propanamide] | 85.0886%
Cc1cc(C)cc(-n2c(C)cc(C(=O)CCl)c2C)c1 [10-E04, 2-chloro-1-[1-(3,5-dimethylphenyl)-2,5-dimethyl-1H-pyrrol-3-yl]ethan-1-one] | 92.1099%
CC(Cl)C(=O)N(C)Cc1cc(C(C)(C)C)[nH]n1 (stereo not drawn) [7-B21, N-[(5-tert-butyl-1H-pyrazol-3-yl)methyl]-2-chloro-N-methylpropanamide] | 82.3393%
N#CC(=Cc1ccc(O)cc1)C(=O)NCCc1c(F)cccc1F [9-I16, 2-cyano-N-[2-(2,6-difluorophenyl)ethyl]-3-(4-hydroxyphenyl)prop-2-enamide] | 83.8205%
O=C(CCl)N(Cc1ccccc1)c1nc2c(s1)CCCC2 [4-C17, N-benzyl-2-chloro-N-(4,5,6,7-tetrahydro-1,3-benzothiazol-2-yl)acetamide] | 73.4958%
Cc1nc(C(NC(=O)CCl)c2ccccc2)no1 (stereo not drawn) [7-F08, 2-chloro-N-[(5-methyl-1,2,4-oxadiazol-3-yl)(phenyl)methyl]acetamide] | 81.5463%
CC(Cl)C(=O)NCc1cccs1 (stereo not drawn) [4-P11, 2-chloro-N-[(thiophen-2-yl)methyl]propanamide] | 115.247%
C=CC(=O)NCCC1CCCS1(=O)=O (stereo not drawn) [3-C12, N-[2-(1,1-dioxo-1lambda6-thiolan-2-yl)ethyl]prop-2-enamide] | 97.03%
C=CC(=O)N1CCN(Cc2ccon2)CC1 [1-N20, 1-{4-[(1,2-oxazol-3-yl)methyl]piperazin-1-yl}prop-2-en-1-one] | 108.685%
C=CC(=O)N1CCC(C(=O)NCC(C)(C)C=C)CC1 [2-G04, N-(2,2-dimethylbut-3-en-1-yl)-1-(prop-2-enoyl)piperidine-4-carboxamide] | 100.077%
COc1cc(C=C(C#N)C(=O)NC(C)C)sn1 [9-N12, 2-cyano-3-(3-methoxy-1,2-thiazol-5-yl)-N-(propan-2-yl)prop-2-enamide] | 88.1713%
CCOc1ccc(NC(=O)C(C#N)=Cc2ccc(F)cc2)cc1 [8-N07, 2-cyano-N-(4-ethoxyphenyl)-3-(4-fluorophenyl)prop-2-enamide] | 74.7111%
O=C(CCl)c1c[nH]c2ccc(F)cc12 [10-O11, 2-chloro-1-(5-fluoro-1H-indol-3-yl)ethan-1-one] | 23.3781%
C=CC(=O)NCc1ccc(C(=O)N2CCN(C(C)=O)CC2)cc1 [3-G17, N-{[4-(4-acetylpiperazine-1-carbonyl)phenyl]methyl}prop-2-enamide] | 90.8546%
C=CC(=O)NCc1nnnn1-c1ccc(F)cc1 [1-M22, N-{[1-(4-fluorophenyl)-1H-1,2,3,4-tetrazol-5-yl]methyl}prop-2-enamide] | 95.2167%
C=CC(=O)N1CCC(C(=O)N2CCC(CC(=O)N(C)C)CC2)CC1 [2-H09, N,N-dimethyl-2-{1-[1-(prop-2-enoyl)piperidine-4-carbonyl]piperidin-4-yl}acetamide] | 92.6662%
